Data taken from the supplement of paper PMC6135742.
Where “and” joins values, the source holds several entries; their conditions need not be identical. Equal values may be shown once. Where a name gives a salt, the structure may show the parent alone. ± gives the standard deviation of the averaged measurements. Whole data set: some 2,600 compounds, median “total cell number (DAPI+ nuclei) relative to DMSO vehicle control” near -1.4, cut for the lowest 2% near -23. This is one part of the list.

Each molecule was assayed on jimpy (Plp1 jimpy) mouse iPSC-derived oligodendrocyte progenitor cells (assay: total cell number (DAPI+ nuclei) relative to DMSO vehicle control (SDs above negative control mean); higher = more surviving cells). Details: 10 µM; 3 days.
Method: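 Primary phenotypic screen of >3,000 bioactive compounds (Selleck L1700 and Sigma LO1280 libraries) at a single dose of 10 µM. Compounds were added to jimpy (Plp1 mutant) mouse iPSC-derived OPCs at the start of thyroid hormone-induced oligodendrocyte differentiation, one well per compound in 384-well plates. After 3 days cells were stained for MBP, Sox10 and DAPI and imaged with an Operetta system. MBP+ oligodendrocyte number and total cell number were expressed as the number of SDs above the mean of the DMSO negative control on the same plate (n=16 control wells per plate). Hits were defined as >=4 SD for oligodendrocytes and >=2 SD for total cells.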

Compound | total cell number
C=C1C[C@@]23CC[C@H]4[C@@](C)(CCC[C@@]4(C)C(=O)O[C@@H]4O[C@H](CO)[C@@H](O)[C@H](O)[C@H]4O)[C@@H]2CC[C@]1(O[C@@H]1O[C@H](CO)[C@@H](O)[C@H](O)[C@H]1O[C@@H]1O[C@H](CO)[C@@H](O)[C@H](O)[C@H]1O)C3 [Stevioside] | -1.65
COc1ccc([C@H]2CNC(=O)C2)cc1OC1CCCC1 [S- (+)-Rolipram] | 1.21
CN(C)c1cc2c(Nc3ccc4c(cnn4Cc4ccccc4)c3)ncnc2cn1 | -5.66
O=C(Nc1ccccc1)c1ccccc1O [Salicylanilide] | -0.446
CC(=O)c1cc([N+](=O)[O-])c(Sc2cccc(Cl)c2Cl)s1 | -9.61
CS(=O)(=O)c1ccc(C2=C(c3ccccc3)C(=O)OC2)cc1 [Rofecoxib] | -2.37 ± 1.3
Cn1c(=O)c2[nH]cnc2n(C)c1=O [Aminophylline ethylenediamine] | -0.771
Cn1c(=O)c2[nH]cnc2n(C)c1=O [Aminophylline] | -4.94
Cc1[nH]c(=O)c(C#N)cc1-c1ccncc1 [Milrinone] | -0.109 ± 0.26
Cc1ccnc2c1NC(=O)c1cccnc1N2C1CC1 [Nevirapine] | -0.509
CN(C)CCC=C1c2ccccc2CCc2ccccc21 [Amitriptyline HCl] | -4.94
CN(C)CCC=C1c2ccccc2CCc2ccccc21 [Amitriptyline hydrochloride] | -5.71
O=C1CCC(N2C(=O)c3ccccc3C2=O)C(=O)N1 (racemic) [Thalidomide] | 3.22
O=C1CCC(N2C(=O)c3ccccc3C2=O)C(=O)N1 (racemic) [(±)-Thalidomide] | -2.18
N=C(N)N [Guanidine HCl] | 1.61
C=C[C@H]1CN2CC[C@H]1C[C@@H]2[C@@H](O)c1ccnc2ccc(OC)cc12 [Quinidine sulfate] | -1.23
CNC(=O)[C@H]1O[C@@H](n2cnc3c(NCc4cccc(I)c4)ncnc32)[C@H](O)[C@@H]1O | -2.05
CCc1nc(-c2cccc(C)c2)c(-c2ccnc(NC(=O)c3ccccc3)c2)s1 | -3.27
Cc1cccc(C)c1NC(=O)C1CCCCN1C (stereo unspecified) [Mepivacaine HCl] | -0.436
COc1cc(/C=C/C(=O)N2CCC=CC2=O)cc(OC)c1OC [Piperlongumine] | -8.21
Cc1ncc([N+](=O)[O-])n1CC(O)CCl (stereo unspecified) [Ornidazole] | -1.54

Compound | total cell number
N#Cc1ccc2[nH]cc(CCCCN3CCN(c4ccc5oc(C(N)=O)cc5c4)CC3)c2c1 [Vilazodone HCl] | -0.542
CN1C(C(=O)Nc2ccccn2)=C(O)c2sccc2S1(=O)=O [Tenoxicam] | -1.36
CSc1ccc(C(=O)c2[nH]c(=O)[nH]c2C)cc1 [Enoximone] | -0.12
COc1ccc(-c2ccc(=N)n(CCCC(=O)O)n2)cc1 | -0.277
CCCCCCCCCCC[C@@H](C[C@@H]1OC(=O)[C@H]1CCCCCC)OC(=O)[C@H](CC(C)C)NC=O [Orlistat] | -1.79
CC1(C)CCC(CN2CCN(c3ccc(C(=O)NS(=O)(=O)c4ccc(NCC5CCOCC5)c([N+](=O)[O-])c4)c(Oc4cnc5[nH]ccc5c4)c3)CC2)=C(c2ccc(Cl)cc2)C1 | -3.38
CS(=O)(=O)c1cccc(CNc2nc(Nc3ccc4c(c3)CCC(=O)N4)ncc2C(F)(F)F)c1 | -12.7 ± 3.8
COCCOc1cc2nc[nH]c(=O)c2cc1OCCOC | -1.64
S=C(Nc1ccccc1)Nc1nccs1 [1-Phenyl-3-(2-thiazolyl)-2-thiourea] | -2.13
COc1cc2ncc(-c3ccccc3)nc2cc1OC [Tyrphostin AG 1296] | -1.11
O=NO [Sodium Nitrite] | -0.157
N[C@@H](Cn1ccc(=O)c(O)c1)C(=O)O [L-Mimosine from Koa hoale seeds] | -0.942
COc1ccc(C(=O)Nc2sc3c(c2C(N)=O)CCCC3)cc1OC | -5.36
CC(=O)[C@@]1(O)CC[C@H]2[C@@H]3CCC4=CC(=O)CCC4=C3[C@@H](c3ccc(N(C)C)cc3)C[C@@]21C [Ulipristal] | -4.47
CC(C)(Oc1ccc(Cl)cc1)C(=O)O [Clofibric Acid] | 1.93
COc1cc(Nc2ncc(F)c(Nc3ccc4c(n3)NC(=O)C(C)(C)O4)n2)cc(OC)c1OC | -9.31
COc1cc(Nc2ncc(F)c(Nc3ccc4c(n3)NC(=O)C(C)(C)O4)n2)cc(OC)c1OC [R406 (free base)] | -10.1
CS(=O)(=O)CCNCc1ccc(-c2ccc3ncnc(Nc4ccc(OCc5cccc(F)c5)c(Cl)c4)c3c2)o1 | -17.3
C=CC(=O)Nc1cccc(Nc2nc(Nc3ccc(N4CCN(C(C)=O)CC4)cc3OC)ncc2C(F)(F)F)c1 | -15.5
Nc1ccc(-c2nc3ccc(-c4nc5ccc(N)cc5[nH]4)cc3[nH]2)cc1 | -3.19
Cn1ccnc1S [Methimazole] | -0.188

Compound | total cell number
Nc1c(Br)cc(Br)cc1CN[C@H]1CC[C@H](O)CC1 [Ambroxol HCl] | 1.91
CN1CCc2ccccc2Cc2[nH]c3ccccc3c2CC1 | -0.107
CC(C)(Sc1cc(C(C)(C)C)c(O)c(C(C)(C)C)c1)Sc1cc(C(C)(C)C)c(O)c(C(C)(C)C)c1 [Probucol] | -3.24
COc1ccccc1N1CCN(CC(O)COc2cccc3ccccc23)CC1 (stereo unspecified) [Naftopidil dihydrochloride] | -2.31
COc1ccccc1N1CCN(CC(O)COc2cccc3ccccc23)CC1 (stereo unspecified) [Naftopidil] | 0.247
COc1ccccc1N1CCN(CC(O)COc2cccc3ccccc23)CC1 (stereo unspecified) [Naftopidil DiHCl] | -2.28
CN1CCC(=C2c3ccccc3CC(=O)c3sccc32)CC1 [Ketotifen fumarate] | -3.49
CN1CCC(=C2c3ccccc3CC(=O)c3sccc32)CC1 [Ketotifen Fumarate] | -2.3
Nc1nc(N)c2nc(-c3cccc(O)c3)cnc2n1 | -7.92
CCCN(CCC)C(=O)C(CCC(=O)O)NC(=O)c1ccccc1 (stereo unspecified) [Proglumide] | -0.695
O=C(O)CC[C@H]1CC[C@@](c2cc(F)ccc2F)(S(=O)(=O)c2ccc(Cl)cc2)CC1 | 0.0291
O=c1ccc2ccc(O)c(O)c2o1 [Daphnetin] | -1.17 ± 0.77
N#CC(c1ccc(Cl)cc1)c1c(Cl)cc(-n2ncc(=O)[nH]c2=O)cc1Cl (stereo unspecified) [Diclazuril] | 1.78
COc1cc(OC)c(C(=O)CCCN2CCCC2)c(OC)c1 [Buflomedil HCl] | 3.75
CC(=O)NCCc1c[nH]c2ccc(O)cc12 [N-Acetyl-5-hydroxytryptamine] | -2.46
CC(C)(C)C(=O)OCOP(=O)(COCCn1cnc2c(N)ncnc21)OCOC(=O)C(C)(C)C [Adefovir Dipivoxil] | -13.3
CNC(CC(=O)O)C(=O)O [NMDA (N-Methyl-D-aspartic acid)] | -1.67
CN1CCc2cccc3c2[C@H]1Cc1ccc(O)c(O)c1-3 [Apomorphine hydrochloride hemihydrate] | -6.53
C[C@H](NC(=O)Cc1cc(F)cc(F)c1)C(=O)N[C@H](C(=O)OC(C)(C)C)c1ccccc1 | -0.28
CCC(NC(C)C)C(O)c1ccc(O)c(O)c1 (stereo unspecified) [Isotharine mesylate] | -0.958
Cc1cc(Nc2ccc(NC(=O)c3ccc(Nc4ccnc5ccccc45)cc3)cc2)nc(N)n1 | -15.2

Compound | total cell number
CN1C2=CC(=O)/C(=N\NC(N)=O)C=C2CC1S(=O)(=O)O (stereo unspecified) [Carbazochrome sodium sulfonate (AC-17)] | -0.411
C[C@H](NC(=O)[C@@H](O)c1cc(F)cc(F)c1)C(=O)N[C@@H]1C(=O)N(C)c2ccccc2-c2ccccc21 | -4.6
CC(C)N(CCCNC(=O)Nc1ccc(C(C)(C)C)cc1)C[C@H]1O[C@@H](n2ccc3c(N)ncnc32)[C@H](O)[C@@H]1O | -2.5 and -4.08
C[C@@H]1[C@H](O)[C@@H](C)/C=C/C=C/C=C/C=C/C=C/C=C/C=C/[C@H](O[C@@H]2O[C@H](C)[C@@H](O)[C@H](N)[C@@H]2O)C[C@@H]2O[C@](O)(C[C@@H](O)C[C@@H](O)[C@H](O)CC[C@@H](O)C[C@@H](O)CC(=O)O[C@H]1C)C[C@H](O)[C@H]2C(=O)O [Amphotericin B] | 3.03
CO[C@@]1(NC(=O)CSCC#N)C(=O)N2C(C(=O)O)=C(CSc3nnnn3C)CS[C@@H]21 [Cefmetazole sodium] | -0.987
CC(C)NC[C@H](O)COc1ccc(CC(N)=O)cc1 [S(-)-Atenolol] | -2.26
c1cnc2c(c1)ccc1cccnc12 [1,10-Phenanthroline monohydrate] | -8.94
CCOC(=O)C(C)(C)Oc1ccc(Cl)cc1 [Clofibrate] | -0.0722
O=c1cc(N2CCOCC2)oc2c1ccc1ccccc12 | -3.52
N[C@H](CO)C(=O)O [D-Serine] | -0.752
O=C1Cc2cc(CCN3CCN(c4nsc5ccccc45)CC3)c(Cl)cc2N1 [Ziprasidone hydrochloride monohydrate] | 2.73
O=C1Cc2cc(CCN3CCN(c4nsc5ccccc45)CC3)c(Cl)cc2N1 [Ziprasidone HCl] | 9.9
CC(C)/N=c1\cc2n(-c3ccc(Cl)cc3)c3ccccc3nc-2cc1Nc1ccc(Cl)cc1 [Clofazimine] | -3.4
O=c1cc(-c2ccc(O)c(O)c2)oc2cc(O)cc(O)c12 [Luteolin] | -10.4
CC(=O)Nc1ccc(NC(=S)NC(=O)c2ccc(C(C)(C)C)cc2)cc1 [Tenovin-1] | -3.94
O=C(Cc1ccc(-c2ccc(OCCN3CCOCC3)cc2)cn1)NCc1ccccc1 | -1.88
Nc1ncn([C@H]2C[C@H](O)[C@@H](CO)O2)c(=O)n1 [Decitabine] | -3.74
NCCCCNCCCN [Spermidine trihydrochloride] | 0.483
